Key:
Type in all cases: in vivo
[1] = system: Plasmopara viticola; assay: Test Example G: Downy mildew on vine; conditions: for control value, Test G (downy mildew on vine): 250 ppm sprayed (2.5 ml/pot) before inoculation, assessed 7 to 10 days after inoculation
[2] = system: Blumeria graminis f. sp. hordei; assay: Test Example D: Powdery mildew on barley; conditions: for control value, Test D (powdery mildew on barley): Table 7, Test D
[3] = system: Alternaia brassicicola; assay: Test Example C: Alternaria sooty spot on cabbage; conditions: for control value, Test C (Alternaria sooty spot on cabbage): Table 7, Test C
[4] = system: Botrytis cinerea; assay: Test Example B: Gray mold on tomato; conditions: for control value, Test B (gray mold on tomato): Table 7, Test B
[5] = system: Puccinia recondita; assay: Test Example E: Brown rust on wheat; conditions: for control value, Test E (brown rust on wheat): Table 7, Test E

Row | SMILES | Test G control value ([1]; Downy mildew on vine, 250 ppm sprayed, 2.5 ml/pot, 7 to 10 days after inoculation) | Test D control value ([2]; Powdery mildew on barley) | Test C control value ([3]; Alternaria sooty spot on cabbage) | Test B control value ([4]; Gray mold on tomato) | Test E control value ([5]; Brown rust on wheat) | control value, Test G (downy mildew on vine) [1] | control value, Test D (powdery mildew on barley) [2] | control value, Test C (Alternaria sooty spot on cabbage) [3] | control value, Test B (gray mold on tomato) [4] | control value, Test E (brown rust on wheat) [5]
1 | CCn1c(-c2c(F)cccc2F)c(-c2oc(I)nc2I)cc(Cl)c1=O [Compound 75] | L (L shows the control value of 50% or less) | L (L shows the control value of 50% or less) | H (H shows the control value more than 50%) | H (H shows the control value more than 50%) | L (L shows the control value of 50% or less) |  |  |  |  | 
2 | Cc1cnn(-c2ccc(=O)n(CC(F)F)c2-c2ccccc2Cl)c1 [Compound 227] |  |  |  |  |  | L (L shows the control value of 50% or less) | H (H shows the control value more than 50%) | H (H shows the control value more than 50%) | H (H shows the control value more than 50%) | H (H shows the control value more than 50%)
3 | CCn1c(-c2c(F)cccc2F)c(-c2cc(Cl)sc2Cl)cc(Cl)c1=O [Compound 297] |  |  |  |  |  | L (L shows the control value of 50% or less) | L (L shows the control value of 50% or less) | L (L shows the control value of 50% or less) | L (L shows the control value of 50% or less) | H (H shows the control value more than 50%)

Reference: US11178870B2 (priority 2017, dated 2021)
